Experimental data reported in the supplement of paper PMC12217912.
This is one part of the list. The full chains were built here from the parent and the listed change. Values near 0.05 are background.

B1: TEV protease; numbered along this chain (parent)
chain: MGESLFKGPRDYNPISSSICHLTNESDGHTTSLYGIGFGPFIITNKHLFRRNNGTLVVQSLHGVFKVKDTTTLQQHLVDGRDMIIIRMPKDFPPFPQKLKFREPQREERICLVTTNFQTKSMSSMVSDTSCTFPSGDGIFWKHWIQTKDGQCGSPLVSTRDGFIVGIHSASNFTNTNNYFTSVPKNFMELLTNQEAQQWVSGWRLNADSVLWGGHKVFMVKPEEPFQPVKEATQL

Variants of: B1
Assay: raw area under fraction-flipped curve 0-4 h after induction (AUC4h, not background-subtracted), DNA-recorder readout of cleavage of the substrate (dimensionless); higher = more cleavage of the substrate by the protease variant
Conditions: temperature: 34 °C; time window: 0-4 h after rhamnose induction
Experimental: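 In vivo DNA recorder in E. coli TOP10(DE3) ΔrhaA at 34 °C. Each TEVp single-site mutant (parent TEVp 0) is paired with a single-site variant of the 7-mer TEVs (canonical ENLYFQ|S). The substrate sits between flexible linkers in a Bxb1-sfGFP-TEVs-SsrA fusion, so cleavage stabilises Bxb1 and speeds flipping of a recombination array, read by NGS. The value is the raw area under the fraction-flipped curve over 0-4 h after rhamnose induction (AUC4h), with ≥20 reads per time point. It is not background-subtracted; inactive controls average about 0.047.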
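Further: Bxb1 expression induced with 0.2% (w/v) L-rhamnose at OD600 near 0.5, cultures sampled hourly, flipped fraction per protease–substrate barcode pair counted by paired-end Illumina sequencing.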

Variant | area with substrate EALYFQS | area with substrate ECLYFQS | area with substrate EELYFQS | area with substrate EFLYFQS | area with substrate EGLYFQS | area with substrate EHLYFQS | area with substrate EILYFQS | area with substrate EKLYFQS | area with substrate ELLYFQS | area with substrate EMLYFQS | area with substrate EPLYFQS | area with substrate EQLYFQS | area with substrate ERLYFQS | area with substrate ESLYFQS | area with substrate ETLYFQS | area with substrate EVLYFQS | area with substrate EWLYFQS | area with substrate EDLYFQS | area with substrate EYLYFQS
K230M | 0.111 | 0.0846 | 0.115 | 0.0988 | 0.07 | 0.0978 | 0.0826 | 0.134 | 0.0918 | 0.116 | 0.116 | 0.162 | 0.104 | 0.09 | 0.11 | 0.0656 | – | – | –
H21Y | 0.0965 | 0.0852 | – | 0.0669 | 0.0719 | 0.094 | 0.0843 | 0.0954 | 0.078 | 0.119 | – | 0.11 | – | – | 0.0963 | 0.103 | 0.0882 | – | –
F187E | 0.068 | 0.0604 | 0.0449 | – | 0.0464 | 0.0498 | 0.0505 | 0.0563 | 0.064 | 0.0537 | 0.0565 | 0.056 | 0.0514 | 0.056 | – | 0.0581 | 0.0471 | 0.0712 | 0.0476
I164C | 0.0848 | 0.0898 | 0.0958 | 0.102 | – | 0.102 | 0.0927 | 0.0942 | 0.0785 | 0.0918 | – | 0.109 | 0.0865 | 0.0902 | – | – | 0.09 | – | 0.0742
R204T | 0.136 | 0.0816 | 0.112 | – | 0.113 | 0.0585 | 0.116 | 0.0762 | 0.101 | 0.118 | 0.086 | – | 0.0868 | 0.0969 | 0.128 | 0.113 | 0.0901 | 0.0763 | 0.157
T23S | 0.103 | 0.103 | 0.102 | 0.0962 | 0.102 | – | 0.0974 | 0.101 | 0.0993 | 0.117 | 0.104 | 0.0982 | 0.104 | 0.0911 | 0.1 | 0.0841 | 0.0913 | – | –
G54H | 0.0733 | 0.0644 | – | – | 0.0661 | 0.0758 | 0.0658 | 0.0747 | 0.0707 | 0.0612 | 0.102 | 0.065 | 0.0663 | 0.0755 | – | 0.0632 | 0.0529 | 0.0767 | 0.0932
F49R | 0.0537 | 0.0552 | – | – | – | 0.0511 | 0.0605 | 0.0578 | – | 0.0459 | 0.0665 | 0.0483 | 0.058 | 0.0571 | – | 0.0492 | 0.0596 | – | 0.0579
E103C | 0.127 | 0.116 | – | – | 0.1 | 0.131 | 0.089 | – | 0.134 | 0.104 | 0.0998 | 0.118 | 0.11 | 0.114 | – | – | 0.1 | – | –
N186L | 0.148 | 0.131 | 0.207 | 0.115 | – | 0.132 | 0.108 | 0.124 | 0.101 | 0.146 | 0.147 | – | 0.127 | 0.0996 | – | 0.152 | – | – | 0.124
S4G | 0.152 | 0.14 | 0.159 | – | 0.12 | 0.145 | 0.11 | 0.122 | 0.124 | 0.116 | 0.102 | 0.125 | 0.117 | 0.125 | – | 0.116 | 0.124 | 0.141 | 0.133
